Results published in publication PMC4336329 (PLoS ONE, 2015).
The whole screen tested about 310,000 compounds, of which about 14,000 (4.5%) showed an effect of 50% or more. The effect is printed as a negative number. Some of the results follow.

target: human ether-à-go-go-related gene (hERG) potassium channel (human, UniProt Q12809); assay: primary screen, population patch clamp on CHO cells stably expressing hERG
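Note: peak tail current of the secondary pulse compared with the same well before compound.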

Chain of human ether-à-go-go-related gene (hERG) potassium channel (Q12809 whole entry, looked up): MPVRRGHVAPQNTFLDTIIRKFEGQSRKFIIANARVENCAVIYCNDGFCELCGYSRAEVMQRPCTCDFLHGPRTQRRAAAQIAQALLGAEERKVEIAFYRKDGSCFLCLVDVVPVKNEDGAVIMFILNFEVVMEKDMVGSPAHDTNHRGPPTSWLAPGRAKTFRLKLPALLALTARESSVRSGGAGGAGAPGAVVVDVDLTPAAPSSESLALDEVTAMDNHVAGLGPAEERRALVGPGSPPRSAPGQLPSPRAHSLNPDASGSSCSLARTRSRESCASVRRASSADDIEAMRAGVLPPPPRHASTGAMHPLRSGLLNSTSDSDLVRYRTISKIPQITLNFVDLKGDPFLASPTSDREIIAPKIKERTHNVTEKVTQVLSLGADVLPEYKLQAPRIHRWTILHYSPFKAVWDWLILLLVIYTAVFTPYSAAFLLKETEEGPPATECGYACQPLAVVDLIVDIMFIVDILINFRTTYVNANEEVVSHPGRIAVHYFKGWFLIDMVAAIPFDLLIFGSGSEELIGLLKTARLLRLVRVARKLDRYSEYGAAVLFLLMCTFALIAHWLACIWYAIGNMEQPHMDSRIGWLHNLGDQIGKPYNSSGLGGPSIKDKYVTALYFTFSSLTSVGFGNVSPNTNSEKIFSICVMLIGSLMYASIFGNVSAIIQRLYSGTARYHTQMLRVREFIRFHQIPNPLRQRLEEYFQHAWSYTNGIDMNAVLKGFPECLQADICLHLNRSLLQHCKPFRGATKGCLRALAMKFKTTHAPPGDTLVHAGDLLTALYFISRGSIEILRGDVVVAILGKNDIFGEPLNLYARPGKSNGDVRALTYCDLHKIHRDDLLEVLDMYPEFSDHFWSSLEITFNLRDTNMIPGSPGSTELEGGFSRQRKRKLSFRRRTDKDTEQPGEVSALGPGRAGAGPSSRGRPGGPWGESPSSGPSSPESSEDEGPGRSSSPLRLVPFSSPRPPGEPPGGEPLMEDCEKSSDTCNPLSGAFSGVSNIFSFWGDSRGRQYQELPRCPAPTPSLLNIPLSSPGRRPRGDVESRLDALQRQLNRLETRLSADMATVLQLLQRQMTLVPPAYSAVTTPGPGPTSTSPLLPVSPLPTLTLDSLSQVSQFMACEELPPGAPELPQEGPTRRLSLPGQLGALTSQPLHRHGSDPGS

Row | Structure (SMILES) | hERG current change (%, negative = inhibition) at 10uM [%]
1 | Cn1cc(C(=O)NCc2cccs2)c(=O)c2cc(S(=O)(=O)N3CCCC3)ccc21 | -17.2
2 | CCNC(=O)c1ccc(NC(=O)CC2SC(N3CCCCC3)=NC2=O)cc1 (stereo not drawn) | -7.22
3 | O=C(O)c1ccc(NCc2nc3ccccc3n2Cc2ccccc2)cc1 | -4.61
4 | CN(Cc1ccccc1)C(=O)C1CCN(S(=O)(=O)c2ccc(-n3cnnn3)cc2)CC1 | -75.2
5 | CCOC(=O)NC(Nc1sc2c(c1C(=O)OC)CCN(C)C2)(C(F)(F)F)C(F)(F)F | -13.2
6 | O=C(Cc1cccs1)Nc1ccccc1NC(=O)Cc1cccs1 | 9.44
7 | CC(C)CCOc1ccc(C(=O)N2CCCC2C(=O)O)cc1 (stereo not drawn) | 7.63
8 | CCOc1ccc(-n2c(C)c(C(C)=O)c3cc(OC(C)=O)ccc32)cc1 | 11
9 | CC(C)Cn1c(SCC(=O)NCc2ccco2)nnc1-c1ccncc1 | 17.8
10 | Cc1nn(CC(=O)NCc2cccnc2)c(=O)c2ccccc12 | 11.9
11 | CCC(c1nnnn1Cc1ccc2c(c1)OCO2)N1CCN(c2ccccc2)CC1 (stereo not drawn) | -9.08
12 | CCCN1CCN(c2nc(-c3cccs3)nc3ccccc23)CC1 | -68.6
13 | Cc1nc(-c2cc(-c3ccc(Cl)cc3)no2)cs1 | 5.86
14 | CC(=O)c1c(C)[nH]c(C(=O)OCC(=O)NCCc2ccc(Cl)cc2)c1C | -24.3
15 | COC(=O)Cn1c(=NC(=O)c2sc3ccccc3c2Cl)sc2cc(S(N)(=O)=O)ccc21 | 8.01
16 | COCCN1CCN(Cc2cn(C)nc2-c2cccc(Cl)c2)CC1 | -15.7
17 | CCn1c(C2CC(=O)N(Cc3ccccc3)C2)nc2ccccc21 (stereo not drawn) | -12.5
18 | COc1cccc(NC(=O)COC(=O)C2CCN(S(=O)(=O)c3cccs3)CC2)c1 | -47.9
19 | Cc1cccc(NC(=O)C2CCCN(S(=O)(=O)c3ccc4[nH]c(=O)ccc4c3)C2)n1 (stereo not drawn) | -34.8
20 | Cc1c(Cl)cccc1NC(=O)CCCCCN1C(=O)CCC1=O | 17.2
21 | O=C(O)COc1ccccc1/C=N/NC(=O)CN1CCN(S(=O)(=O)c2ccc(Br)cc2)CC1 | 4.89
22 | C=CCN(CC=C)C(=O)CCc1nnc(CCc2c[nH]c3ccccc23)o1 | 15.7

Row | Structure (SMILES) | hERG current change (%, negative = inhibition) at 10uM [%]
23 | CN(C)C=O.COc1ccccc1CNC(=O)COC(=O)c1ccc(NC(N)=O)cc1 | 15.7
24 | Cc1cc(Br)cc(Br)c1OCC(=O)NNC(=O)c1ccoc1C | 7.4
25 | CN1CCN(S(=O)(=O)c2ccc(NC(=S)NC(=O)C3CC3)cc2)CC1 | -17.5
26 | CCc1ccc(NC(=O)CS(=O)CC(=O)NCCCc2ccccc2)cc1 (stereo not drawn) | -4.52
27 | CC(C)[C@@]1(c2ccccc2)ON(c2ccccc2C(F)(F)F)C1=O | -6.16
28 | COc1ccc(N(CC2CO2)S(=O)(=O)c2ccccc2)cc1 (stereo not drawn) | 10.8
29 | CC(C)(C)C(=O)Nc1nc2c(s1)CN(Cc1ccccc1)CC2 | 14.2
30 | COc1ccccc1NC(=O)Cn1cnc2sc(C(=O)Nc3cc(OC)c(OC)c(OC)c3)c(C)c2c1=O | 27.8
31 | CC(C)(C)OC(=O)NCC(=O)N1CCC(C(=O)O)CC1 | 18.3
32 | COC(=O)c1ccc(C(C(=O)NC2CCCCC2)N(CCc2ccccc2)C(=O)Cc2cccs2)cc1 (stereo not drawn) | 3.83
33 | OC(COC(c1ccc(F)cc1)c1ccc(F)cc1)CN1CCc2ccccc2C1 (stereo not drawn) | -73.7
34 | O=C(N/N=C/c1ccc2c(c1)OCO2)c1ccc2c(c1)OCCO2 | 10.8
35 | CC(=O)Nc1c(C(=O)O)[nH]c2ccccc12 | 12.7
36 | CN(C)/C=C/C(=O)c1ccc2noc(-c3ccc(F)cc3)c2c1 | -9.41
37 | Cc1ccc2c(c1)C1CN(C)CCC1N2C(=O)c1ccccc1NS(=O)(=O)c1ccc(F)cc1C.Cl (stereo not drawn) | -17.4
38 | Cc1ccc(Cn2c(C(CO)Nc3nc(-c4ccc(F)cc4)cs3)nc3ccccc32)cc1 (stereo not drawn) | 15.4
39 | Cc1cc(C(=O)COc2ccc3ccc(=O)oc3c2)c(C)n1Cc1cccs1 | -4.97
40 | O=C(Cn1cnc2c(nnn2Cc2ccc(F)cc2)c1=O)Nc1ccc2c(c1)OCCO2 | -27.2
41 | COc1ccc(Cl)cc1NC(=O)CN(C)CC(=O)Nc1cc(OC)c(OC)c(OC)c1 | -8.72
42 | CC(=O)N=C1SC2CS(=O)(=O)CC2N1c1cccc(Cl)c1Cl (stereo not drawn) | -0.645
43 | CCOC(=O)c1cccc(P(=O)(C(C)(C)C)C(C)(C)C)c1 | 17.1
44 | Cc1cccc(N2CCN(C(=O)CCn3c(=O)[nH]c4ccccc4c3=O)CC2)c1C | -8.4

Row | Structure (SMILES) | hERG current change (%, negative = inhibition) at 10uM [%]
45 | Cc1ccc(NC(=O)c2cnccn2)c(OC(F)F)c1 | 4.64
46 | CCc1[nH]nc2c1C(c1ccncc1)C(C#N)=C(N)O2 (stereo not drawn) | 12.3
47 | Cn1c(SCCc2ccc([N+](=O)[O-])cc2)nccc1=O | -59.9
48 | CCn1c(SCC(=O)NCC2CCCO2)nnc1-c1ccccc1OC (stereo not drawn) | 10.9
49 | Cc1cc(-c2ccc(S(=O)(=O)Nc3ccc(C#N)cc3)s2)on1 | 12
50 | CC(C)[C@H](NC(=O)N1CCn2c1nc1ccccc12)C(=O)NCc1ccc(F)cc1 | 3.68
51 | C=C(C)C1Cc2c(C)nn(-c3ccccn3)c2C1 (stereo not drawn) | 11
52 | O=[N+]([O-])c1ccccc1S(=O)(=O)Nc1cccc2cccnc12 | 0.351
53 | CN(C)c1nc(N)nc(CSc2ccccn2)n1 | 11.8
54 | Cc1ccc(OCc2nnc(SCC(=O)Nc3cccc4ccccc34)n2-c2ccccc2)cc1 | 17.3
55 | CC(=O)c1ccc(Oc2cc(C)nc(NCc3ccccc3)n2)cc1 | -1.25
56 | COc1ccc(/C=N/NC(=O)c2ccc3c(c2)OCCO3)cc1[N+](=O)[O-] | 16
57 | Cc1ccc(C(=O)N(C)CCOc2ccccc2)cc1S(=O)(=O)N1CCCCC1 | -51.4
58 | Nc1ccc(-c2nc3cc(N)ccc3o2)cc1 | -6.14
59 | Cc1cc2c(cc1S(=O)(=O)Nc1cccc(F)c1)n(C)c(=O)c(=O)n2C | -10.9
60 | CC(C)CNc1nc(Oc2ccc(=O)n(-c3ccccc3)n2)nc(N2CCOCC2)n1 | -1.97
61 | O=C(CNC(=O)c1ccccc1)N/N=C/c1cn[nH]c1-c1ccccc1 | 16.4
62 | CC(C)COP(=O)(OCC(C)C)C(O)c1ccc2c(c1)OCO2 (stereo not drawn) | 8.62
63 | CC1Sc2ccc(S(=O)(=O)N3CCN(c4ccccc4)CC3)cc2NC1=O (stereo not drawn) | 0.591
64 | O=C(CSc1ncn[nH]1)NCc1ccccc1Cl | 14.9
65 | CCS(=O)(=O)N1CCC(C(=O)O)CC1 | 33.7
66 | O=C(O)c1ccccc1Nc1cccc(OCc2ccc3ccccc3n2)c1 | 14.1

Row | Structure (SMILES) | hERG current change (%, negative = inhibition) at 10uM [%]
67 | CC(=O)N1CCN(c2ccc(NC(=O)c3ccc([N+](=O)[O-])cc3)cc2)CC1 | 1.37
68 | CCOc1ccc(-c2c[n+](=O)c3c(n2[O-])CCCC3)c(OCC)c1 | -1.28
69 | COC(=O)c1c[nH]c(=O)c2ccccc12 | 30.9
70 | CCOc1ccc(S(=O)(=O)N2CCC(C(=O)NCc3ccco3)CC2)cc1 | -53
71 | Cc1ccc(/C=N/N2CCN(Cc3ccccc3)CC2)cc1 | -17.7
72 | COCCOc1cc(N(CC(=O)N(C)C)S(=O)(=O)c2ccccc2)c(Cl)cc1Cl | -1.63
73 | COc1ccc(CN2CCC(=O)N([C@H](CO)Cc3ccccc3)CC2)cc1 | -2.16
74 | c1ccc(CCNCCOc2ccccc2)cc1 | -0.101
75 | CC(/C=N/n1c(-c2ccncc2)n[nH]c1=S)=C\c1ccco1 | 20.5
76 | CCOC(=O)c1c(C)sc(Sc2ccc(Cl)cc2[N+](=O)[O-])c1OC | 11.3
77 | CCOCCc1nnc(NC(=O)c2cc(OC)c(OC)cc2[N+](=O)[O-])s1 | 22.8
78 | Cc1ccc(NC(=O)CN(C)C(=O)C(c2ccccc2)c2ccccc2)cc1 | -16.6
79 | CCCOP(=O)(c1ccc(N(C)C)cc1)C(O)c1ccc(N(C)C)cc1 (stereo not drawn) | 12.8
80 | COc1ccc(-c2c(NC(=O)c3ccco3)n(-c3ccc(C)cc3)nc(C)c2=O)cc1 | 18.2
81 | CC(C)Cn1c(N)c(/C=N/NC(=O)c2ccc(Cl)cc2)c(=O)n(C)c1=O | 28.6
82 | COC(=O)C(Nc1ccccc1Cl)(c1cc(C)c(O)c(C)c1)C(F)(F)F (stereo not drawn) | -3.48
83 | CC(C)c1nnc(NC(=O)CCC(=O)Nc2ccc(Cl)cc2)s1 | 17.2
84 | CC(C)(C)c1ccc(C(CC(=O)O)NC(=O)C23CC4CC(CC(C4)C2)C3)cc1 (stereo not drawn) | 17.7
85 | N#Cc1c(SCC(=O)Nc2ccc(C(F)(F)F)cc2)sc2c(O)cc(=O)[nH]c12 | 18.9
86 | CCCC(CCC(=O)NC1CCCCC1)C(=O)O (stereo not drawn) | -0.0608
87 | CS(=O)(=O)Nc1nnc(CCc2ccccc2)s1 | 19.6
